From publication PMC6919601, “Identification of Plasmodium dipeptidyl aminopeptidase allosteric inhibitors by high throughput screening” (PLoS ONE, 2019)
Screen size: about 110,000 compounds; about 230 (0.21%) showed an effect of 50% or more. Some of the results follow.

biological target: DPAP1 (Plasmodium falciparum, UniProt Q8IIJ9); test: primary screen, percent inhibition; read by cleavage of a fluorogenic dipeptide substrate; higher = more effect of the substance; design: species or system P. falciparum D10 trophozoite lysates; single well
Sequence (Q8IIJ9 whole entry, looked up): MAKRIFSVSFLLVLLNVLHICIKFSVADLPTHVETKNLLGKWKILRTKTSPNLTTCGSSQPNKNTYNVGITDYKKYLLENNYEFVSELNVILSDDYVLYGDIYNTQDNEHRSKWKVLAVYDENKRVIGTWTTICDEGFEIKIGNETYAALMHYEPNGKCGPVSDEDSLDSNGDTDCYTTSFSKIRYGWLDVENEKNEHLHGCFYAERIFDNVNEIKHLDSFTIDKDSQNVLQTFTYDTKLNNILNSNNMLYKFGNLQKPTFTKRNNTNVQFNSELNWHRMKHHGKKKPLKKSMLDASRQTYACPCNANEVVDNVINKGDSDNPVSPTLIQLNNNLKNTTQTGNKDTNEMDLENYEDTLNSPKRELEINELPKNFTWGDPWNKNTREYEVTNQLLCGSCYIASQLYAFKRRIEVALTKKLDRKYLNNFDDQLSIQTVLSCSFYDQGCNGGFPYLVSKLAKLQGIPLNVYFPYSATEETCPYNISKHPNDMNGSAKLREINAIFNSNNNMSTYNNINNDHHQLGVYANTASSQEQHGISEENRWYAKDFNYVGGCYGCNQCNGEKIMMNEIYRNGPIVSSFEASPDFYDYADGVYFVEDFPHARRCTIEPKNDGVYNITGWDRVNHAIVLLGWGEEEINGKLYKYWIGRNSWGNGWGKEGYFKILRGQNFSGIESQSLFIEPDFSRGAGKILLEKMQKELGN
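Also: 30 min substrate incubation versus DMSO and 10 µM JCP410 controls.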

| SMILES | % Inhibition @ 10 uM [%] |
| --- | --- |
| CCOc1ccccc1/C=c1\sc2nc(=O)c(Cc3ccc(Cl)cc3)nn2c1=O | -1.11 |
| Cc1cc(OC(CN(C)C)CN(C)C)nc2ccccc12 | 2.31 |
| COc1cccc(C2NCCc3c2[nH]c2ccccc32)c1 (stereo not shown) | -3.62 |
| COc1ccc(N2CC(C(=O)Nc3ccccn3)CC2=O)cc1 (stereo not shown) | -8.09 |
| CC(C)Oc1ccc(C(=O)C2=C(O)C(=O)N(CCN3CCOCC3)C2c2ccc(O)cc2)cc1 (stereo not shown) | -5.93 |
| COc1ccc2c(c1OC)C(=O)N(c1ccccc1C)C2=O | 2.69 |
| CCN(CC)CCn1c(C)nc2ccccc21 | -9.87 |
| Clc1nc(NCCN2CCOCC2)nc(NCc2ccccc2)n1 | -4.24 |
| CC1CCc2nc3ccc(S(=O)(=O)N4CCC(C(=O)N5CCCC5)CC4)cc3c(C(=O)O)c2C1 (stereo not shown) | -4.85 |
| CC1=C(C(=O)Nc2ccccc2C)C(c2cccc(Br)c2)n2nc(CCCO)nc2N1 (stereo not shown) | 1.08 |
| CCOc1ccc(CC(=O)Nc2ccc(C(N)=O)cc2)cc1OCC | 1.84 |
| CCOC(=O)c1nnc(-c2cccnc2)o1 | 0.974 |
| CCC1CCCCN1C(=O)Cn1nc([N+](=O)[O-])c(Br)c1C (stereo not shown) | -6.01 |
| Cc1ccc2c(CNCc3ccc(OC(C)C)cc3)c(C(=O)O)[nH]c2c1 | -4.46 |
| CCN(CC)CCNC(C)Cc1cccc(C(F)(F)F)c1 (stereo not shown) | -4.75 |
| Cn1cc(CC(=O)NCc2ccc(F)cc2)c2ccccc21 | -4.76 |
| CCOc1ccc2nc(NC(=O)c3ccc(S(=O)(=O)N(CC)CC)cc3)sc2c1 | 11.1 |
| COc1cccc(C(=O)Nc2cc3oc4ccccc4c3cc2OC)c1 | 17.2 |
| O=C(NCc1cccnc1)C1CCN(S(=O)(=O)N2CCC3(CC2)OCCO3)CC1 | -6.75 |
| OCCN(Cc1ccccc1)Cc1ccc(C(F)(F)F)cc1 | 3.04 |
| CCCC[C@H](NC(=O)[C@H](CC(C)C)NC(=O)OCc1ccccc1)C(=O)c1nc2ncccc2o1 | 2.87 |
| COc1ccc(-n2c(C)c3c(C)nn4cc(-c5ccc(C)o5)cc4c3c2C)cc1 | 0.558 |

| SMILES | % Inhibition @ 10 uM [%] |
| --- | --- |
| Cc1ccnc(NS(=O)(=O)c2ccc(NC(=O)C(C)Oc3cccc(Cl)c3)cc2)n1 (stereo not shown) | 13.9 |
| CCn1c2ccccc2c2cc(CN3CCN(Cc4ccccc4)CC3)ccc21 | -4.84 |
| COc1cc(C(CC(=O)N2CCOCC2)N2Cc3ccccc3C2=O)cc(OC)c1OC (stereo not shown) | -0.591 |
| CCN(CC)C(=O)c1c(C)nn(S(=O)(=O)c2ccc(Cl)cc2)c1SC | 4.81 |
| CC(C)c1ccc(CNC(=O)c2cccc3ccccc23)cc1 | -2.5 |
| CC1CCC(N[C@H]2CC[C@H](O)CC2)C1 (stereo partly shown) | 0.273 |
| COc1ccccc1C(=O)NCc1nc(-c2ccccc2)no1 | 2.14 |
| CCOC(=O)c1cnc2cc(OC)ccc2c1O | -0.711 |
| CCOC(=O)c1ccc(-c2ccc(C=C3C(=O)c4ccccc4C3=O)o2)cc1 | -2.15 |
| CO/C(O)=C1/C(C)=NC2=C(C(=O)CC(c3ccccc3)C2)C1c1ccc(O)cc1 (stereo not shown) | 7.53 |
| COc1ccc(CNC(=O)C(CS(=O)(=O)Cc2ccccc2)N2Cc3ccccc3C2=O)cc1 (stereo not shown) | 6.74 |
| CC1(C)CC(=O)C(C(=N)NC(=O)c2ccccc2)=C(O)C1 | -9.24 |
| O=C(Cn1ncc2c(=O)oc3ccccc3c21)Nc1nccs1 | 1.24 |
| Cc1ccc(-c2cs/c(=N\c3cccc(Cl)c3)n2CCO)cc1 | 4.74 |
| CCOc1cc(/C=C/C(=O)O)ccc1OCc1ccccc1C#N | -0.339 |
| COc1cccc(-n2ccc3ccccc32)c1 | -3.58 |
| Cc1ccc(CN2C(=O)CCC2C(=O)NCCCN2CCC(Cc3ccccc3)CC2)cc1 (stereo not shown) | 3.24 |
| CCc1c(C)sc(NC(=O)c2cc(OC)c(OC)c(OC)c2)c1C(N)=O | 22.9 |
| CCc1ccc(-c2cc3c(=O)n(CC(=O)NCCc4ccc(Cl)cc4)nc(C)n3n2)cc1 | -1.08 |
| NC(=O)C1CCCN(C2CCN(CCc3ccccc3)CC2)C1 (stereo not shown) | 5.03 |
| CCN(CC)C(=O)c1csc(-c2ccccc2)c1-c1ccccc1 | 5.98 |
| Fc1nc(N2CCCC2)c(F)c(Oc2ccc(Br)cc2)c1F | -1.6 |

| SMILES | % Inhibition @ 10 uM [%] |
| --- | --- |
| CC(C)(C)C1CCc2c(sc(NC(=O)c3ccc(Cl)cc3)c2C(=O)NCCO)C1 (stereo not shown) | 0.24 |
| O=C(c1cccnc1)N1CCN(C(=O)c2ccco2)CC1 | 7.1 |
| O=C(CCC(=O)N1CC=C(c2c[nH]c3ccccc23)CC1)NC1CCCCCC1 | 1.31 |
| COc1ccc(CN(C(=O)c2oc3ccccc3c2C)C2CCS(=O)(=O)C2)cc1 (stereo not shown) | -6.94 |
| Cn1cccc1Cc1nnc(SCC(=O)NCc2ccc(F)cc2)n1CCc1ccccc1 | 5.77 |
| COc1ccccc1Nc1nc2c(s1)CCC2 | 3.69 |
| NC(=S)C1COc2ccccc2O1 (stereo not shown) | 6.12 |
| COc1cc(Cl)cc(/C=C2/NC(=O)N(c3cccc(Cl)c3)C2=O)c1O | -1.51 |
| O=C(CSc1nnnn1-c1ccccc1)Nc1nsc(-c2ccc(Cl)cc2)n1 | 0.778 |
| CCOc1ccccc1C(=O)Nc1cc(C)cc(C)c1 | -5.99 |
| CCOc1ccc2[nH]c3nc4ccccc4nc3c2c1 | -3.75 |
| O=C1OC(c2ccccc2Br)=N/C1=C\c1ccc(Br)o1 | -0.48 |
| Cc1nn(C(=O)c2cccs2)c(C)c1NC(=O)c1cccs1 | 4.61 |
| CCOC(=O)C1=C(CS(=O)(=O)c2ccc(C)c(C)c2)NC(=O)NC1c1ccc(OCC)cc1 (stereo not shown) | -0.431 |
| NC(=O)c1c(NC(=O)COc2ccccc2Cl)sc2c1CCCCCC2 | 3.69 |
| O=c1oc2ccccc2c2oc3cc(O)c(O)cc3c12 | 5.12 |
| Cc1ccc(C)c(OCCCCc2c(C)n[nH]c2C)c1 | 0.0792 |
| Cc1[nH]ncc1N1C(=O)c2cccc3c(Cl)ccc(c23)C1=O | -2.02 |
| Cc1ccccc1NCC(=O)Nc1c(C)cccc1C | -3.77 |
| O=C(O)CNC(=O)/C(=C\c1ccco1)NC(=O)c1ccccc1 | -2.26 |
